Laboratory results published in the supplement of paper PMC10126150.
Values marked as one replicate rest on one cluster of the flow cell; about a third of the high ones do not repeat.

System: ATP
Assay: switch fluorescence ratio, 500 uM ATP over buffer (Cy3 cluster intensity, sum of 5 cycles each) (fold (ratio)); higher = stronger signal-on switching upon ATP binding; sequences stand for … in TCGTCGGCAGCGTCAGATGTGTATAAGAGACAGTTTTTTTTTTTTTTTTTTTTTTTTT…TC
Conditions: aptamer strand: ATP DNA aptamer (quencher-CACCTGGGGGAGTATTGCGGAGGAAGG + anchor), 100 nM annealed; ATP concentration: 500 uM; one replicate
In short: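 Clusters with intensities outside 100-1000 RFU were excluded. The remaining Cy3-labelled switching-strand clusters on a modified Illumina MiSeq flow-cell had been annealed to 100 nM quencher-labelled ATP aptamer and imaged in selection buffer, then after 15 min with 500 uM ATP at 22 °C, for five cycles separated by NaOH stripping and re-annealing. The fluorescence ratio, averaged per switch-domain sequence, is each cluster's summed target-cycle Cy3 intensity over its summed buffer-cycle Cy3 intensity.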
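Further: ATP exposure 15 min at 22 °C before imaging.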

AGGCCTCCGT was tested, and the switch fluorescence ratio was 1.44.
TTCCAGGTAG was tested, and the switch fluorescence ratio was 1.76.
Sequence TGCCCCGTTG has a switch fluorescence ratio of 1.
For TCGTATTAAC, the switch fluorescence ratio was 1.1.
For CATTGTACGA, the switch fluorescence ratio was 0.997.
With CAGAAGTTGC the switch fluorescence ratio was 1.1.
Sequence ACAGTGTATT has a switch fluorescence ratio of 0.994.
Sequence ATAGTGTTT has a switch fluorescence ratio of 0.966.
For CATTTGAGGC, the switch fluorescence ratio was 1.04.
GGGTTTTCCT was tested, and the switch fluorescence ratio was 1.03.
In the case of ACTTAGGTCT, the switch fluorescence ratio is reported as 1.01.
For GGGAGGCAGC, the switch fluorescence ratio was 0.985.
In the case of TAGAGATGTT, the switch fluorescence ratio is reported as 0.996.
CGGTGAAAAG showed a switch fluorescence ratio of 1.01.
Work on TGAAGGTACG yielded a switch fluorescence ratio of 0.946.
Work on GCATTCAGCG yielded a switch fluorescence ratio of 1.03.
Sequence GACGGCTAAG has a switch fluorescence ratio of 0.976.
